From paper PMC12136788 come the findings set out here.

This is one part of the list.

The labels stand for the following.
T1: UNK ZnF1-3 (human, UniProt Q9C0B0 31-174)
T1 sequence: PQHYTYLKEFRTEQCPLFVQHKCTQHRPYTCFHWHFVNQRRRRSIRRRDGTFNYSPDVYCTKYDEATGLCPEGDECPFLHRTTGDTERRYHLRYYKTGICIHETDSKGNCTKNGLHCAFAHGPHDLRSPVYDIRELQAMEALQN

B1: chrX:77155053:77155054:+_ENSG00000131174_ENST00000481445|hu_hu|FALSE|FALSE (ssRNA)
RNA: GGGAGUUCUACAGUCCGACGAUCCGAACUUGGAGACGAUUUAGUGCGCUUUUGACCAAGGGAAACAUCGUGAAGGUGAAGCUAGAACUGCGGCAAUACAGCUGCUGCUUUGGUGCCAAUUCGCUUCAGGUACCCUUGAAGUGACAACAGAGGAUUGAGCAUCA
B2: chr2:47635579:47635580:+_ENSG00000095002_ENST00000543555|hu_mus|FALSE|FALSE (ssRNA)
RNA: GGGAGUUCUACAGUCCGACGAUCAACUCGAUACUGGCGAACCAGAAGAAGAUCUUUCACGAAAGACUCAAAGUUCAUCUUGCUAAGCACAACACUCUGCAGGGUCUUACUCCCUGCCGGCCCCAUGUACUUGAUCACGCCCUGCAACAGAGGAUUGAGCAUCA
B3: chr15:98568902:98568903:-_ENSMUSG00000051853_ENSMUST00000053183|mus_mus|FALSE|FALSE (ssRNA)
RNA: GGGAGUUCUACAGUCCGACGAUCCCCAUUUAAAAUGGAACAGAAUCCCUGGCACCCCCAUGUAGAGAACACACACACACACUCACACACACACACACACACACACACACUCACACACACACACACACACACACACACACACAUCAACAGAGGAUUGAGCAUCA
B4: 41988534_41988654_1386_CDS_ENSG00000174197_ENST00000570161|human|control|control (ssRNA)
RNA: GGGAGUUCUACAGUCCGACGAUCCUUAACUGUGCUUCUGGUGACAGCACAGGGCUCCAGAUAGACUACUGGCAUCUUUCCAGUGUCUAAUUUGAACAUUUUAGCUUUAGCAACACCUGAUGGGCUGCUUGGAAGCCAUUUAGACAACAGAGGAUUGAGCAUCA
B5: chr7:75932113:75932114:+_ENSG00000106211_ENST00000248553|hu_hu|hu_hu_hu_mus_False|1_8 (ssRNA)
RNA: GGGAGUUCUACAGUCCGACGAUCCUGCGACCACUCAUCGGGCAACCGGGGCACCCCGAAAGCUUGAUCGAAGAGGCGGCUGUGUGCAGGGUACCAGUCCCGGAAUGGUUCCCAGCUCGGGCUCCGCAGCGAGAAGGGGACGCGCAACAGAGGAUUGAGCAUCA
B6: chr15:63448706:63448707:-_ENSG00000185088_ENST00000411926|hu_mus|FALSE|FALSE (ssRNA)
RNA: GGGAGUUCUACAGUCCGACGAUCAAUCUUGUAGCAACCUGGACAUUUCACAUCCAUGAAGUAAGAAUUUGGGCUCUGAACCAGCCGUUUCUUCUUAUGUUUUUUCUUCUCCUCCUCCAAGGAAGGGUGUAACAGAUCUCUAGCCAACAGAGGAUUGAGCAUCA
B7: chr17:64801638:64801639:+_ENSG00000154229_ENST00000413366|hu_mus|hu_hu_hu_mus_False|18_88 (ssRNA)
RNA: GGGAGUUCUACAGUCCGACGAUCUAUAUAUAUAUAUACAUAUGUACACAUAUGUAGUAAAACCCUAGUUAAACGUGUAAAGUAGCCAUUCAUUUUUAAAAUUACAUCUACAUUAAAAAAGUAAUCUAUCUGAUAGAGUGCCAGCAACAGAGGAUUGAGCAUCA
B8: chr16:94690093:94690094:+_ENSMUSG00000040785_ENSMUST00000117648|mus_hu|mus_mus_mus_hu_True|38_58 (ssRNA)
RNA: GGGAGUUCUACAGUCCGACGAUCGGGCUGGGAUGACGGACACACAGCCUCGAUUCCAGGGGGAAAAAGUCUUAGUCAAUACUAAUUAAAAAGUGUUUUUAUAAUUGGAAAAUCAGAUUACAUCUAUAAAAGAUGAAAAGCAAACAACAGAGGAUUGAGCAUCA
B9: chr7:141438946:141438947:+_ENSG00000106028_ENST00000265304|hu_mus|hu_hu_hu_mus_True|88_98 (ssRNA)
RNA: GGGAGUUCUACAGUCCGACGAUCGACGAAAUACCUGACAGGUCUUCGAAACAUGGCUGGCUUCUGUUUUUCUUACAACCUAAUCUUUAGGCUUUUCCUAAAGGAAAGAAAGAAAAGAGAAAAAUGAUAAAUCAAGAAACUACACAACAGAGGAUUGAGCAUCA
B10: chr10:19624517:19624518:-_ENSMUSG00000020003_ENSMUST00000020182|mus_hu|motif|central (ssRNA)
RNA: GGGAGUUCUACAGUCCGACGAUCUUCGUUGUUCUCACUCCAAGUCACAUCAAACAAACCAUCAUUCCAGUCAAAGCUUCGGAAAAGCCUUAGCCCAGCUUCAUCUGGAUCCAAUAUUAGUAGGGUUCCACAGCCCGCGAUGCCCAACAGAGGAUUGAGCAUCA
B11: chr7:75932113:75932114:+_ENSG00000106211_ENST00000248553|hu_hu|hu_hu_hu_mus_False|78_108 (ssRNA)
RNA: GGGAGUUCUACAGUCCGACGAUCCUGCGACCACUCCUCGGGCAACCGGGGCACCCCGAAGGCCUGGUCGAAGAGGCGGCUGUGUGCAGGGUACCAGUCCCGGAAUGGUUCCCAGCUCGGGCUCCGCAGCAGCGAGAAGGGCACCAACAGAGGAUUGAGCAUCA
B12: chr11:93987321:93987322:+_ENSMUSG00000020859_ENSMUST00000103168|mus_mus|FALSE|FALSE (ssRNA)
RNA: GGGAGUUCUACAGUCCGACGAUCUACAAAGUUACAUUCCGAACCCCAGGGAUUCCAUAAUAGAAAUAAAUACUGAAAUAACUACAUUGCUAAAUGAGCUUUUUACGCAUAGAAAUGAAGCCGUGGCCUCUAAAGACAGCAAAUCAACAGAGGAUUGAGCAUCA
B13: chr14:70237991:70237992:+_ENSG00000100650_ENST00000557154|hu_hu|motif|central (ssRNA)
RNA: GGGAGUUCUACAGUCCGACGAUCCCUGCUUCUUGACCGGCUGUAAGAUUUGCGACUACGGGAACGGGAUCGGCUACGAGACCGGGAGGAACUUCUGGUCCGGGAUCGAGACCUGCUUCUUGACCUACUGUGCCUUUUGCUGCCCAACAGAGGAUUGAGCAUCA
B14: 32436424_32438851_567_CDS_ENSG00000101421_ENST00000217402|human|control|control (ssRNA)
RNA: GGGAGUUCUACAGUCCGACGAUCCCCUACAGGUUUCGAAAUUGCUGUUGAAAUCUCCUCUGCAAGUUCUUGCUGGUCAGCAAUGUCCUGCAUUAACUCAUCAACUUUAUCGAUGUCCAUGUUGUCAUGGGCCGCCUUCAUGGCCAACAGAGGAUUGAGCAUCA
B15: chr12:39763582:39763583:-_ENSG00000139116_ENST00000544797|hu_mus|hu_hu_hu_mus_False|18_18 (ssRNA)
RNA: GGGAGUUCUACAGUCCGACGAUCCUCUAGGAACUGGGCAUUCACUUUGAAUUCAGGAGGGGGCAGCCCGUUUUUAAUCGCUGAGGUCUUUUUCUCAUCAAUACUCUUGAACAGGUGUUUAACAGCUCGAGAGAUGAUGCCCUGCAACAGAGGAUUGAGCAUCA
B16: chr17:49039638:49039639:-_ENSG00000008294_ENST00000262013|hu_mus|FALSE|FALSE (ssRNA)
RNA: GGGAGUUCUACAGUCCGACGAUCCAUUCCGAACCCCAGGGAUUCCAUAAUAGAAAUAAAUACUGAAAUAACUACAUUGCUAAAUGAGCUUUUUACGCAUAGAAAUGAAGCCGUGGCCUCUAAAGACAGCAAAUGGGACAAUUCCAACAGAGGAUUGAGCAUCA
B17: chr1:163112212:163112213:-_ENSG00000143248_ENST00000313961|hu_hu|hu_hu_hu_mus_False|58_98 (ssRNA)
RNA: GGGAGUUCUACAGUCCGACGAUCUUUUAUUAUCAGUAAGCAUGAGUUACAUACUAGGCAAAGUAUUGGAUACAAUAUUCUAAAGAUAAACACUAUUGGUCCAGAAUUUAAAACUUUAUGAGCGAAGUGCUGGCACAGGACUUACAACAGAGGAUUGAGCAUCA
B18: chr1:169356373:169356374:+_ENSG00000117475_ENST00000367808|hu_mus|FALSE|FALSE (ssRNA)
RNA: GGGAGUUCUACAGUCCGACGAUCAGCAAUGAGCUCCCCCUGGCAGUGAUUGCAGCAAUUGAAAGUUAUAUUUUCAUAUCUGGUAUAGGGAUGGAAACGUCCAAUAUUUUUCUUUGUAGUGAGUAAUGUGGUUGGUGAAGAUUCCAACAGAGGAUUGAGCAUCA
B19: chr2:217001886:217001887:+_ENSG00000079246_ENST00000392132|hu_hu|motif|central (ssRNA)
RNA: GGGAGUUCUACAGUCCGACGAUCAUGAGGAAAAGCCACGCCGACUUGAGGAUUAGCUCUUUUGUCAUAAGCAUAUCGAACGGUGGCCACCAUGUCUAAGUCAUCCAAAGCAUGAAUCAGGGAGGAAAGUGCAACUGCAGCUGCCAACAGAGGAUUGAGCAUCA
B20: chr12:125510211:125510212:+_ENSG00000184992_ENST00000341446|hu_hu|FALSE|FALSE (ssRNA)
RNA: GGGAGUUCUACAGUCCGACGAUCUUACUGUACAACUAAAUAUGGUUAUAUCCUUUGUUUAAAAAAUAUUUUUUCCCCCACUAAUUACACUUCGUGUGUAGUUCCACGUCAAUGAUCUUUCCGCUCUUCUGGGAAUGUGUCCUACAACAGAGGAUUGAGCAUCA
B21: chr17:66333223:66333224:-_ENSMUSG00000034647_ENSMUST00000038116|mus_hu|FALSE|FALSE (ssRNA)
RNA: GGGAGUUCUACAGUCCGACGAUCAACAUCUCCUAGGACAAAAGUAUUUUCUGUAUCUUUUGUAGAUUCAUUAUCAGUAUCUAAAGCAGAACUAAUAAUCUGAACUGCAUUUUUUUGUUGUAAAAUACCUGGCUCUUGAUUAGCCAACAGAGGAUUGAGCAUCA
B22: 152021145_152023285_379_CDS_ENSMUSG00000025437_ENSMUST00000117492|mouse|control|control (ssRNA)
RNA: GGGAGUUCUACAGUCCGACGAUCAAGAGUGGUGAGGUUCACAGUUAGAUAAUGCUUUGUCUCCUGCGAGUGUAUGGUGCUGUGGUCCACUUGCGACUCCCCGCAGCCAACAUAGGAGCACCUAUUCUCCAGGCACGCCCACAGCAACAGAGGAUUGAGCAUCA

In the test the target is T1, UNK ZnF1-3. The test is described as follows: nsRBNS (natural sequence RNA bind-n-seq); RBNS binding buffer (assumed for nsRBNS): 25 mM Tris pH 7.5, 150 mM KCl, 3 mM MgCl2, 0.01% Triton X-100, 500 ug/ml BSA, 20 U/ml SUPERase-In, 4 C; UNK is unkempt and MSI1 is Musashi-1; names of the RNAs are library labels; protein concentration not given here; high values mean tight binding.
On to B1, for which the binding signal stood at 0.752 enrichment R.
To B2 belongs 0.922 enrichment R.
B3 had a binding signal of 1.64 enrichment R.
To B4 belongs 0.468 enrichment R; to B5, 0.857 enrichment R.
To B6 belongs 0.676 enrichment R; to B7, 1.61 enrichment R; to B8, 2.32 enrichment R.
Molecule B9 had a binding signal of 0.913 enrichment R.
To B10 belongs 0.887 enrichment R; to B11, 0.702 enrichment R; to B12, 1.35 enrichment R.
On to B13, for which the binding signal amounted to 1.19 enrichment R.
To B14 belongs 0.565 enrichment R.
Molecule B15 yielded a binding signal of 1.53 enrichment R.
For B16, the binding signal amounted to 1.24 enrichment R.
To B17 belongs 1.42 enrichment R; to B18, 2.61 enrichment R.
To B19 belongs 1.63 enrichment R; to B20, 0.754 enrichment R; to B21, 0.719 enrichment R.
Molecule B22 yielded a binding signal of 0.605 enrichment R.
